According to PubChem BioAssay AID588795 (National Center for Advancing Translational Sciences (NCATS), 2011):
Among all 390,000 compounds or so, about 1,400 (0.36%) were called active. The inconclusive results got no clear call from the source; some entries with a clear call stand among them for comparison. Calls follow the shape of the dose curve; as a rule, active = well fitted inhibition curve with a large enough effect; inconclusive = small, poorly fitted or top-dose-only effect; inactive = no such curve, though single readings can be large or run the other way. A potency beside an inconclusive call is a rough fit, not a confirmed value.

biological target: Flap endonuclease 1 (Homo sapiens) (UniProt P39748); experiment: qHTS Assay for the Inhibitors of Human Flap endonuclease 1 (FEN1).; also: nearly all actives have a fitted effect of over 65% in size; conditions: Recombinant FEN1 flap cleavage, fluorescence, 15 min; series mostly up to 114 µM
In short: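 FEN1 at 10 nM, compound pretreatment for 15 min (room temperature), 50 nM final substrate to initiate; endpoint reads at 0 and 15 min; DMSO-only plates used as vehicle background.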
Potency is read from the fitted curve at half-maximal effect; tags tell the direction and shape of the fitted curve.

Sequence of UniProt P39748 (P39748 whole entry, looked up): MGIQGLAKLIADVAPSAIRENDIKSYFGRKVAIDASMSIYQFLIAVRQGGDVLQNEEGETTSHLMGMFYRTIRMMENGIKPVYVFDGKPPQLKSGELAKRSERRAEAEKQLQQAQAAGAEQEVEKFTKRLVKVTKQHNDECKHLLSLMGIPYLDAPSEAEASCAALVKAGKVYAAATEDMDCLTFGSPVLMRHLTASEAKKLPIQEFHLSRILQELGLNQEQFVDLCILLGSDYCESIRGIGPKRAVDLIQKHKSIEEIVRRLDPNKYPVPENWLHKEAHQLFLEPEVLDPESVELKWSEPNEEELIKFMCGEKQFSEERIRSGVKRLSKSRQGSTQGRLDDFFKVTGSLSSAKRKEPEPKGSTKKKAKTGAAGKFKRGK

Compound	Potency
O=C1NC(Cc2ccccc2)C(=O)N1Cc1ccccc1 (centres undefined)	inactive
O=C(O)c1ccc(N/N=C/c2ccc3nccnc3c2)cc1	inconclusive: 79.4 µM [inhibitor, partial curve, poor fit]
C[n+]1c(-c2ccccc2)cc2c(=Cc3ccccc3)c3ccccc3n21	inconclusive: 56.2 µM [inhibitor, partial curve, poor fit]
CCOc1ccc(/C=C/c2ccc3ccccc3n2)cc1OCC	inconclusive: 35.5 µM [inhibitor, partial curve]
Cc1ccc(-c2cc(C(=O)Nc3ccc(S(=O)(=O)Nc4nccs4)cc3)c3ccccc3n2)c(C)c1	inactive
Oc1ccc(CN2CCN(c3ccccc3)CC2)c2cccnc12	inactive
Cc1cccc(Nc2nc(NCc3ccco3)c3ccccc3n2)c1	inconclusive: 89.1 µM [inhibitor, partial curve, poor fit]
O=C(O)c1cc(N2C(=O)C=CC2=O)cc(N2C(=O)C=CC2=O)c1	active: 10 µM
CN(C)S(=O)(=O)c1cccc(NC(=S)Nc2cccc3cnccc23)c1	inconclusive: 89.1 µM [inhibitor, partial curve, poor fit]
O=C(NCC(c1cccnc1)N1CCc2ccccc2C1)C(=O)Nc1cccc(Cl)c1 (centres undefined)	inactive
CCOc1cc(CNCCSc2nnnn2C)cc(Cl)c1OCc1ccc(Cl)cc1	inactive
COc1ccc(Br)cc1C1CC(=O)N2CN(Cc3ccccc3)CSC2=C1C#N (centres undefined)	inconclusive: 8.91 µM [inhibitor, partial curve]
O=C(COC(=O)c1ccc(S(=O)(=O)NCc2ccco2)cc1)Nc1ccc(Cl)cn1	inactive
COc1cc2c(cc1OC)CN(c1ccc([N+](=O)[O-])cc1C#N)CC2	inconclusive: 39.8 µM [inhibitor, partial curve, poor fit]
CC(C)(C)c1cc(NCCCn2ccnc2)n2ncc(-c3ccc(Cl)cc3)c2n1	inconclusive: 56.2 µM [inhibitor, partial curve, poor fit]
CC(C)Cn1c(SCc2nnc(-c3cccs3)o2)nc(O)cc1=O	inactive
Cc1nn(-c2ccccc2)c(Cl)c1/C=N/Nc1ccc(S(=O)(=O)Nc2ccccc2C(=O)O)cc1[N+](=O)[O-]	inconclusive: 89.1 µM [inhibitor, single point]
COc1cc(/C=C2\CC/C(=C\c3cc(OC)c(OC)c(OC)c3)C2=O)cc(OC)c1OC	inactive
CCCNC(=S)N1CCN(C(c2ccccc2)c2ccccc2)CC1	inconclusive: 100 µM [inhibitor, partial curve, poor fit]
CC(C)c1nc2sc3c(N4CCCCC4)ncnc3c2c2c1CCCC2	inactive
Cc1c(O)cc2c(c1O)C(=O)CC(c1ccc(O)cc1)O2 (centres undefined)	inconclusive: 20 µM [inhibitor, partial curve, poor fit]
CCOc1ccc(-c2[nH]ncc2Oc2ccccc2OC)c(O)c1	inconclusive: 50.1 µM [inhibitor, partial curve, poor fit]
Cn1c(N=Nc2ccc(N3CCOCC3)cc2)[n+](C)c2ccccc21	active: 56.2 µM

Compound	Potency
CCC1=NN2C(=N)/C(=C\c3cccn3-c3ccc(Br)cc3)C(=O)N=C2S1	active: 15.8 µM
COC(=O)c1c(-c2cccs2)csc1NC(=O)c1ccc(C(C)(C)C)cc1	inconclusive: 79.4 µM [inhibitor, single point]
COc1ccc(C2/C(=C(\O)c3ccc4c(c3)OCCO4)C(=O)C(=O)N2CCCN(C)C)cc1 (centres undefined)	inactive
CCOC(=O)c1cc(-c2ccco2)nc2c1c(C)nn2-c1cccc(Cl)c1	inactive
Cc1ccc(NC(=O)CNc2cccc(Br)c2)cc1S(=O)(=O)N1CCOCC1	inconclusive: 89.1 µM [inhibitor, partial curve, poor fit]
O=C(NNc1ccc(C2CCCCC2)cc1)C(O)(c1ccccc1)c1cccs1 (centres undefined)	inconclusive: 79.4 µM [inhibitor, partial curve, poor fit]
Cn1c(C(=O)NCCCN2CCc3ccccc3C2)cc2c(=O)n(C)c3ccccc3c21	inconclusive: 17.8 µM [inhibitor, full curve, poor fit]
Cc1ccc(-c2nc(S(=O)(=O)c3ccc(C)cc3)c(N3CCCCC3)o2)cc1	inactive
CCCN1C(=O)/C(=C/c2c(N3CCNC(=O)C3CC(=O)OCC)nc3c(C)cccn3c2=O)SC1=S (centres undefined)	inconclusive: 28.2 µM [inhibitor, full curve]
O=C1c2cccc3cccc(c23)N1Cc1cccc(F)c1	inactive
Cc1ccc(/C=C/C(=O)NCc2ccccn2)o1	inactive
Cc1cccc2cc(C#N)c(SCCN3CCCCC3)nc12	active: 50.1 µM
COc1cc(OC)c2c(c1)O/C(=C\c1ccccc1)C2=O	inconclusive: 44.7 µM [inhibitor, partial curve]
COc1ccc(Cn2c(C)nc3c(c2=O)c2nc4ccccc4nc2n3Cc2ccco2)cc1	active: 39.8 µM
CC1=C(C#N)c2nc(N)c(C#N)c(C)c2/C1=C\c1ccc(OCC(=O)O)c(Cl)c1	inconclusive: 56.2 µM [inhibitor, partial curve, poor fit]
Cc1ccc(Cl)cc1-n1ncc2c(NCCC3=CCCCC3)ncnc21	inactive
Cc1ccc(NC(=O)c2ccc3c(c2)NC(=O)c2ccccc2S3)cc1	inactive
C/C=C\C=C/C(=O)Nc1cccc(C2=NOC3(C2)C[C@@H](C(N)=O)N(C(=O)/C=C/C=C\C)C3)c1 (some centres undefined)	active: 50.1 µM
O=C(OCC1OC(n2ncc(=O)[nH]c2=O)C(OC(=O)c2ccccc2)C1OC(=O)c1ccccc1)c1ccccc1 (centres undefined)	inactive
COc1cccc(-n2c(SCc3cc(=O)oc4cc(O)c(O)cc34)nc3ccccc3c2=O)c1	active: 50.1 µM
CC(=NNc1nc2ccccc2o1)c1cc2ccccc2cn1	inconclusive: 56.2 µM [inhibitor, partial curve, poor fit]
O=c1[nH]ccc2c(O)cccc12	inconclusive: 37.7 µM [inhibitor, partial curve, poor fit]
COc1cccc(NC(=O)Nc2cc(-c3cn4cccnc4n3)ccc2OC)c1	inconclusive: 89.1 µM [inhibitor, partial curve, poor fit]

Compound	Potency
S=C(NCC1CCCO1)Nc1ccc(Cl)c(Cl)c1 (centres undefined)	inconclusive: 89.1 µM [inhibitor, single point]
C=CCS/C(N)=N\N=C\c1c(O)ccc2ccccc12	inconclusive: 56.2 µM [inhibitor, partial curve]
CN(C)/C=C/C(=O)c1ccn(S(=O)(=O)c2ccccc2)c1	inconclusive: 3.16 µM [inhibitor, partial curve, poor fit]
COc1cc(/C=C2/C(=N)N3C=CSC3=NC2=O)ccc1OCCCOc1ccccc1C	inconclusive: 89.1 µM [inhibitor, partial curve, poor fit]
CCCCCNc1nc2c(-c3ccccc3)nnn2c2ccccc12	inactive
CN1CCN(C(=O)CCCOc2cc(=O)n(C)c3ccccc23)CC1	inactive
Cc1cccc(C(=O)NC(NC(=S)Nc2ccc(S(N)(=O)=O)cc2)C(Cl)(Cl)Cl)c1 (centres undefined)	inactive
CC1=NNC(=O)/C1=C\c1cn(-c2ccccc2)nc1-c1cccs1	inactive
COc1cc(/C=N/NC(=O)c2ccc3c(c2)OCCO3)cc(Br)c1O	inactive
O=[N+]([O-])c1ccccc1/C=C/C=N/n1c(-c2ccc(Cl)cc2)n[nH]c1=S	inconclusive: 79.4 µM [inhibitor, partial curve, poor fit]
c1coc(-c2nnc(-c3ccco3)nn2)c1	active: 44.7 µM
CCCCNc1c(-c2cccc(SC3CCCCC3)c2)nc2ccc(Cl)cn12	inconclusive: 44.7 µM [inhibitor, partial curve, poor fit]
CC(C)Oc1ccc(CNC(=O)c2cnc3sc(N4CCCCCC4)nn3c2=O)cc1	inactive
Cn1c(=O)n(C)c2cc(NC(=O)CSc3nc4ccccc4c(=O)[nH]3)ccc21	inconclusive: 79.4 µM [inhibitor, single point]
CC(C)CCn1c(=O)c2sccc2n2c(CCCC(=O)Nc3ccc(F)c(Cl)c3)nnc12	inconclusive: 50.1 µM [inhibitor, partial curve, poor fit]
O=C(c1ccc(F)cc1)C1CCN(C(=S)Nc2ccc(F)cc2)CC1	inconclusive: 89.1 µM [inhibitor, partial curve, poor fit]
COc1ccc(OC)c(/C=C2\C=Cc3ccccc32)c1	inconclusive: 25.1 µM [inhibitor, full curve]
C/C=C/C=C/C(=O)[C@@H]1[C@@H]([C@]2(C)OC(=O)C(C)=C2O)[C@H]2/C(=C(O)/C=C/C=C/C)C(=O)[C@]1(C)C(=O)C2(C)O (some centres undefined)	inconclusive: 35.5 µM [inhibitor, full curve]
O=[N+]([O-])c1ccc(CN2CCCCCC2)s1	inconclusive: 56.2 µM [inhibitor, partial curve, poor fit]
CCOC(=O)C1=C(CN(C)Cc2ccccc2)NC(=O)NC1c1ccc(OC(C)C)cc1 (centres undefined)	inconclusive: 25.1 µM [inhibitor, partial curve, poor fit]
O=C(COc1cccnc1[N+](=O)[O-])Nc1cccc2ccccc12	inactive
COc1ccccc1C(=O)N/C(=C/c1ccco1)C(=O)Nc1ccc(C(=O)O)cc1	inconclusive: 56.2 µM [inhibitor, partial curve, poor fit]
Cc1nc2c(ccc3nc(NC(=O)c4ccc5c(c4)OCCO5)sc32)s1	inconclusive: 89.1 µM [inhibitor, single point]
